In PubChem BioAssay AID1768 (National Center for Advancing Translational Sciences (NCATS), 2009):
“And” between values parts separate entries of the source, which are not always exact repeats. Identical values can stand only once. About 620 (0.23%) of roughly 270,000 compounds were called active. The shares of active, inactive and inconclusive entries below differ from those in the screen. The call rests on the fitted dose curve; in most records, active means well fitted inhibition curve with a large enough effect in the polarisation, with a control signal flat (not every such curve was filed as active); inconclusive means small, poorly fitted or top-dose-only effect, or effect the other way, or a change in a side signal; inactive means no such curve, though single readings can be large or run the other way; the % refers to the polarisation. Where the call is inconclusive, the potency comes from a doubtful curve fit. “Side channel” marks fits to a control or component signal instead of the main read-out.

molecular target: Menin (Homo sapiens) (UniProt O00255); test: qHTS Assay for Inhibitors Targeting the Menin-MLL Interaction in MLL Related Leukemias: Competition With Texas Red Labeled MLL-derived Mutant Peptide; details: fluorescence polarization; series mostly up to 61.6 µM
Sequence of UniProt O00255 (O00255 whole entry, looked up): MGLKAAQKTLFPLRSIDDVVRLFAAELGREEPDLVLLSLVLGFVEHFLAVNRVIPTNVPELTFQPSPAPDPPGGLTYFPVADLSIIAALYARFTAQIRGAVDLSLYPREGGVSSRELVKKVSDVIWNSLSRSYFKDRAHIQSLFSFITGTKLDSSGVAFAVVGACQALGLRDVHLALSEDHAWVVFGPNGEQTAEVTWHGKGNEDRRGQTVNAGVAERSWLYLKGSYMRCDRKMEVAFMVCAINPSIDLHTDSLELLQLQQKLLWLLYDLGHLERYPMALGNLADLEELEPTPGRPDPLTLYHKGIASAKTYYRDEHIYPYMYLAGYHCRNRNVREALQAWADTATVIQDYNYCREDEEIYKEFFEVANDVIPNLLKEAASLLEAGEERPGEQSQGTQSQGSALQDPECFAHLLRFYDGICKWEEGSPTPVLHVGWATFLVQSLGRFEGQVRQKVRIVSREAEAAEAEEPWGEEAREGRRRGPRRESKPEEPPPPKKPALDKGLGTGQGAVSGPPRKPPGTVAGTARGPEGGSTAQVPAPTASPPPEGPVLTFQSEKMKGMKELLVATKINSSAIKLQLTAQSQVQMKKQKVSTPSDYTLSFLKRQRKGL
Potency means the concentration at half of the fitted maximal effect; tags describe the fitted curve by direction and shape or compound fluorescence and quenching.

Row | Structure (SMILES) | Potency
1 | CCc1c(C)nc(SCC(=O)Nc2nc(-c3ccc(OC)cc3)cs2)[nH]c1=O | inconclusive: 28.2 µM [quencher, side channel, partial curve]
2 | COc1ccc(-c2nc(-c3ccc(O)cc3O)cs2)cc1OC | inconclusive: 15.8 µM [quencher, side channel, partial curve]
3 | Cc1nc2cc(C(F)(F)F)ccc2n1CCNc1nc(-c2ccc([N+](=O)[O-])c(Cl)c2)cs1 | inconclusive: 12.6 µM [quencher, side channel, partial curve]
4 | Cc1ccc2[nH]c(-c3cccc(N)c3)cc2c1 | inconclusive: 14.1 µM [quencher, side channel, partial curve]
5 | CC12COC3(P(=O)(c4ccccc4)c4ccccc4)CC1CCC23CP(=O)(c1ccccc1)c1ccccc1 (stereo not given) | inconclusive: 3.55 µM [fluorescent, side channel, partial curve]
6 | CCOC(=O)c1c(NC(=O)c2cc(-c3cccc(O)c3)on2)sc(C(C)=O)c1C | inconclusive: 25.1 µM [quencher, side channel, single point]
7 | CN1CCc2c(sc3c2C(=O)NC(c2ccccc2)N3)C1 (stereo not given) | inconclusive: 39.8 µM [fluorescent, side channel, single point]
8 | CCCS(=O)(=O)Nc1c(C(=O)O)[nH]c2ccccc12 | inconclusive: 39.8 µM [quencher, side channel, single point]
9 | COc1ccc(OC)c(C(c2nnnn2C2CCCC2)N2CCc3ccccc3C2)c1 (stereo not given) | inconclusive: 39.8 µM [inhibitor, partial curve]
10 | CCOC(=O)C1=C(O)/C(=C/c2cn(CC(=O)N3CCCC3)c3ccccc23)SC1=Nc1ccccc1 | inactive
11 | COc1ccc(C2=NN(C3=NN=C(N)Cc4ncnn43)C(O)(C(F)(F)F)C2)cc1 (stereo not given) | inconclusive: 20 µM [inhibitor, single point]
12 | COCc1cc(C(C)=O)ccc1OCC(=O)Nc1ccc(NC(C)=O)cc1 | inconclusive: 17.8 µM [quencher, side channel, partial curve]
13 | O=[N+]([O-])c1ccc(CSc2nnc(-c3cnccn3)o2)cc1 | inconclusive: 39.8 µM [quencher, side channel, single point]
14 | Cc1cc(N2C(=O)C(=O)/C(=C(/O)c3ccc(F)cc3)C2c2ccc(Cl)cc2)no1 (stereo not given) | inconclusive: 17.8 µM [quencher, side channel, partial curve]
15 | CC(C)CC(COCc1ccc(C(F)(F)F)cc1)N1CCN(C(=O)c2ccc(C(F)(F)F)cc2)CCC1=O (stereo not given) | inconclusive: 3.98 µM [fluorescent, side channel, partial curve]
16 | CCCC(=O)c1ccc(N2CCN(C(=O)OCC)CC2)c(F)c1 | inconclusive: 14.1 µM [fluorescent, side channel, partial curve]
17 | COc1ccc(C(=O)N2CCN(CCCc3ccccc3)CC2)cc1OC | inconclusive: 17.8 µM [inhibitor, single point]
18 | CCCS(=O)(=O)c1c(S(=O)(=O)CCC)c2c(N)cccn2c1C(=O)c1ccc(Br)cc1 | inconclusive: 25.1 µM [quencher, side channel, partial curve]
19 | Cc1cc(C)cc(N(CC(=O)Nc2ccccc2-c2ccccc2)S(=O)(=O)c2ccccc2)c1 | inactive
20 | Cc1ccc(NC(=O)c2nc[nH]c2C(=O)N[C@@H](C)c2ccccc2)cc1 | inconclusive: 10 µM [quencher, side channel, partial curve]
21 | COc1ccc(C(CCN2CCCC2)c2c(OC)cc(OC)c3c(-c4ccccc4)cc(=O)oc23)cc1 (stereo not given) | inconclusive: 7.94 µM [inhibitor, partial curve, poor fit]
22 | CCN(C(=O)COC(=O)c1cc(S(=O)(=O)Nc2c(C)n(C)n(-c3ccccc3)c2=O)ccc1Cl)C1CCCCC1 | inconclusive: 10 µM [fluorescent, side channel, partial curve]
23 | COCCCNc1nc2ccccc2nc1NS(=O)(=O)c1ccc(Cl)cc1 | inconclusive: 28.2 µM [quencher, side channel, single point]
24 | CN(/N=C/c1ccc(O)cc1O)c1nc(-c2ccccc2)cc(-c2ccccc2)n1 | inconclusive: 3.16 µM [quencher, side channel, full curve]
25 | COc1cc(CN(C(=S)NCC(=O)NC2CC2)C2CCCC2)cc(OC)c1OC | inactive
26 | CSc1ccccc1NC(=O)CN(C)CC(=O)Nc1cc(C)ccc1C | inactive
27 | O=C(Nc1nc(-c2ccco2)cs1)c1ccccc1 | inconclusive: 14.1 µM [quencher, side channel, partial curve]
28 | C=CCc1ccc(O)c(-c2ccc(O)c(CC=C)c2)c1 | inconclusive: 11.2 µM [quencher, side channel, partial curve] and inconclusive: 10 µM [quencher, side channel, partial curve] and inconclusive: 14.1 µM [quencher, side channel, partial curve]

Row | Structure (SMILES) | Potency
29 | Cc1cc(C)nc(SCc2ccc(C(=O)N/N=C/c3ccncc3)cc2)n1 | inactive
30 | O=C(CN(Cc1ccccc1)S(=O)(=O)c1ccccc1)NC1CC1 | inactive
31 | Nc1nn(S(=O)(=O)c2cccc3nsnc23)cc1-c1ccc(Br)cc1 | inconclusive: 28.2 µM [quencher, side channel, partial curve]
32 | CC(=O)c1ccc(NC(=O)CSc2ccsc2[N+](=O)[O-])cc1 | inconclusive: 14.1 µM [quencher, side channel, partial curve]
33 | O=C(O)c1cccc(N/N=C/c2ccc(-c3ccccc3)cc2)c1 | inconclusive: 14.1 µM [quencher, side channel, partial curve]
34 | CCOC(=O)c1c(-c2ccc(C)cc2)csc1NC(=O)/C(C#N)=C/c1ccc(O)c(OC)c1 | inconclusive: 10 µM [quencher, side channel, partial curve]
35 | O=C(NNc1nc2c(F)cccc2s1)c1cc(=O)c2ccccc2o1 | inconclusive: 22.4 µM [quencher, side channel, partial curve]
36 | CCC1(C)Cc2c(sc3nnn(CC(=O)Nc4cccc5ccccc45)c(=O)c23)CO1 (stereo not given) | inconclusive: 39.8 µM [inhibitor, single point]
37 | CC(C)CCNC(=O)COc1cccc2c1OC(C)(C)C2 | inconclusive: 12.6 µM [fluorescent, side channel, partial curve]
38 | CC(=O)NC1=NC(=O)/C(=C/c2cc(C)n(-c3cccc(C(=O)O)c3)c2C)S1 | inactive
39 | CC(C)CC(NC(=O)C(NC(=O)OC(C)(C)C)C(C)C)C(=O)NC(CCC(=O)OCc1ccccc1)C(N)=O (stereo not given) | inconclusive: 7.94 µM [fluorescent, side channel, partial curve]
40 | CCn1c2ccccc2c2cc(NC(=O)CSc3nccc(=O)[nH]3)ccc21 | inconclusive: 20 µM [quencher, side channel, partial curve]
41 | COC(=O)c1ccc(N/N=C/c2cc([N+](=O)[O-])cc(OC)c2O)cc1 | inconclusive: 14.1 µM [quencher, side channel, partial curve]
42 | Nc1ccc(O)c2c1C(=O)c1ccccc1C2=O | inconclusive: 3.55 µM [fluorescent, partial curve]
43 | Cc1ccc(C(=O)NC(=S)Nc2ccccc2N2CCCC2)cc1[N+](=O)[O-] | inconclusive: 31.6 µM [quencher, side channel, single point]
44 | COc1ccc(-c2ncccc2OC(=O)C23CC4CC(CC(C4)C2)C3)cc1OC | inconclusive: 31.6 µM [inhibitor, single point]
45 | COc1cccc2cc3c(=O)n(-c4ccccc4)nc-3oc12 | inconclusive: 5.62 µM [quencher, side channel, partial curve]
46 | Cc1nc(C)c(C(=O)Nc2nc3c(C)cccc3s2)o1 | inconclusive: 28.2 µM [quencher, single point]
47 | COc1ccccc1N1CCN(C(=O)C(C)CS(=O)(=O)c2ccc3c(c2)NC(=O)CS3)CC1 (stereo not given) | inactive
48 | Cc1cccc(N2NC(=O)/C(=C/c3ccc(-c4ccc(Cl)c(C(=O)O)c4)o3)C2=O)c1 | inconclusive: 28.2 µM [quencher, side channel, single point]
49 | Cc1nc(C(=O)Nc2cc(Cl)ccc2Cl)nn1-c1cc(OC(C)C)c(Cl)cc1Cl | inconclusive: 12.6 µM [inhibitor, partial curve, poor fit]
50 | COC(=O)[C@H]1[C@H]2C[C@@H]3c4[nH]c5cc(OC)ccc5c4CCN3C[C@H]2C[C@@H](OC(=O)c2cc(OC)c(OC)c(OC)c2)[C@@H]1OC | inactive
51 | CC(=O)Oc1ccc(C(=O)NCc2ccc3c(c2)OCO3)cc1 | inconclusive: 35.5 µM [inhibitor, partial curve]
52 | Cc1ccc(NC(=O)n2ncc3c(C)cccc32)c(C)c1 | inconclusive: 39.8 µM [inhibitor, single point]
53 | COc1ccc(S(=O)(=O)Nc2nc(C(F)(F)F)cs2)cc1 | inconclusive: 31.6 µM [quencher, side channel, single point]
54 | Cc1cc2ncn(/N=C/c3cc(Br)ccc3O)c2cc1C | inconclusive: 14.1 µM [quencher, side channel, partial curve]
55 | O=C(CN(C1CCCCC1)C1CCCCC1)N1CCc2ccccc2C1 | inconclusive: 10 µM [fluorescent, side channel, partial curve]
